The source of these data is publication PMC4336329 (PLoS ONE, 2015).

In all, about 310,000 compounds went through this assay and about 2,200 (0.71%) showed an effect of 50% or more. The effect is printed as a negative number. Some of the results follow.

The target of the assay is human ether-à-go-go-related gene (hERG) potassium channel (human, UniProt Q12809). The experiment in a line: primary screen, population patch clamp on CHO cells stably expressing hERG.
human ether-à-go-go-related gene (hERG) potassium channel, sequence (Q12809 whole entry, looked up): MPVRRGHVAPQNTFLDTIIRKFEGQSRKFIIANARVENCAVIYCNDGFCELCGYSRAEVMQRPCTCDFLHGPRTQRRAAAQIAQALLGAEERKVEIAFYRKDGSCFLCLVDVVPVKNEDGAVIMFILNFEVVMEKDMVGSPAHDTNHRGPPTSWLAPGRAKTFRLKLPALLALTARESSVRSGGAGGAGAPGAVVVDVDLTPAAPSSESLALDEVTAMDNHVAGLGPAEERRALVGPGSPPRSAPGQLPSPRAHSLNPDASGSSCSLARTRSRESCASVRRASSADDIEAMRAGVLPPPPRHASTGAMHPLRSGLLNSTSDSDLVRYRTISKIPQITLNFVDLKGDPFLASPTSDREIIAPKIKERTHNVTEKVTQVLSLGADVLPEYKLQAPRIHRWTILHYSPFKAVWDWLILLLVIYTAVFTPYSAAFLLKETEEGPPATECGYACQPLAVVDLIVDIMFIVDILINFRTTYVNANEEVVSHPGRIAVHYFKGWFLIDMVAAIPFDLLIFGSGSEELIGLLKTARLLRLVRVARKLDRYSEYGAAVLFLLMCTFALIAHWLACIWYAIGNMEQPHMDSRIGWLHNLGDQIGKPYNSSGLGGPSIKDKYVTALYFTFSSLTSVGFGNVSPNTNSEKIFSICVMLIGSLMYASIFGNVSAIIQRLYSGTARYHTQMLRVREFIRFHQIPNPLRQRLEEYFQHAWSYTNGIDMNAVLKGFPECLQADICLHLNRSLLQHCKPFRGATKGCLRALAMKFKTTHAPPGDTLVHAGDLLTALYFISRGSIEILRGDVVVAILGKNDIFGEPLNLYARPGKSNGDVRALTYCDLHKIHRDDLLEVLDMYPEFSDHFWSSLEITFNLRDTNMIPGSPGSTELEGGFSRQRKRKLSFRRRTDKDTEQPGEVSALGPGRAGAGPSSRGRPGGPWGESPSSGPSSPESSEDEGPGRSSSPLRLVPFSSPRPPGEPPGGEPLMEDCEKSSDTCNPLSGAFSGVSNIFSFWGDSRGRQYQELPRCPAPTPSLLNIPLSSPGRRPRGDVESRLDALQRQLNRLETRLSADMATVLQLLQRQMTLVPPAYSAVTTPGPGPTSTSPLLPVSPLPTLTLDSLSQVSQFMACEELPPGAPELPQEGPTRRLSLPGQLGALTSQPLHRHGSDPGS
Take `NC(=O)C1CCN(S(=O)(=O)c2cccc(S(=O)(=O)N3CCCCC3)c2)CC1`: the “hERG current change (%, negative = inhibition) at 1uM” value came out at 10.2%.
Under `CN(C)c1nc(-c2cccs2)cc(C(F)(F)F)c1C#N` stands 13%; under `O=C(NCc1c(F)cccc1F)c1cc(COc2c(F)cccc2F)on1`, 9.34%; under `COc1ccccc1NC(=O)N1CCC(c2nc3ccccc3o2)CC1`, 7.38%.
For the molecule `Cc1cc(Cl)c2oc(C(=O)NC3CCC(O)CC3)c(C)c2c1` (stereo not shown), the “hERG current change (%, negative = inhibition) at 1uM” value worked out at 9.2%.
As to `COc1cc([N+](=O)[O-])ccc1NC(=O)CCS(=O)(=O)c1ccc2c(c1)n(C)c(=O)c(=O)n2C`, the “hERG current change (%, negative = inhibition) at 1uM” value is 9.09%.
Under `CC1CCN(CCCOc2ccc(OCc3ccccc3)cc2)CC1.O=C(O)C(=O)O` stands -14.1%; under `O=C(CCc1ccc(S(=O)(=O)N2CCOCC2)cc1)N/N=C/c1cccc(O)c1`, -3.37%.
Under `Cc1nn(-c2ccccc2)c(C)c1NC(=O)c1cccs1` stands 10.9%.
As for `Cc1cccc(C(C)(C)C)c1OCCOCCN1CCCC1`, the “hERG current change (%, negative = inhibition) at 1uM” value turned out to be 8.91%.
Turning to `COC(=O)c1ccc(COc2ccc(NC(C)=O)cc2)o1`, the “hERG current change (%, negative = inhibition) at 1uM” value is on record as 9.7%.
Under `CCOCCn1c(=O)c2c(nc3n2CCCN3Cc2ccccc2)n(C)c1=O` stands 8.74%.
Regarding `Clc1ccc2c(c1)C(N1CCNCC1)Cc1ccccc1S2.O=C(O)/C=C\C(=O)O` (stereo not shown), the “hERG current change (%, negative = inhibition) at 1uM” value was -5.92%.
As to `Cc1c(NC(=O)c2nn3c(c2Br)NC(c2ccccc2)CC3C(F)(F)F)c(=O)n(-c2ccccc2)n1C` (stereo not shown), the “hERG current change (%, negative = inhibition) at 1uM” value is 8.76%.
Under `Cc1ccc(-c2cc(C(=O)N/N=C/c3ccco3)n[nH]2)s1` stands -0.673%; under `Nc1nc(N)n(-c2ccccc2)c(=Nc2ccccc2)n1`, 12.4%; under `CNC(=O)c1ccccc1NC(=O)c1ccc(C)c(S(=O)(=O)N2CCCCC2)c1`, -2.21%.
Under `COc1cccc(CN2CCN(Cc3c(C)nn(C(C)C)c3C)CC2CCO)c1` (stereo not shown) stands 7.3%; under `CC(C)(C)CC(=O)NC(=S)Nc1ccccc1[N+](=O)[O-]`, 12.7%.
Under `C=CCNC(=O)C(C)N1C(=O)c2ccccc2C1=O` (stereo not shown) stands 12.2%; under `O=S(=O)(c1ccccc1)[C@@]1(c2ccccc2)C[C@@H]2ON=C(c3cccc(-c4ccccc4)c3)[C@@H]2C1`, 5.04%.
For `CCCc1cc(=O)[nH]c(=S)[nH]1`, the “hERG current change (%, negative = inhibition) at 1uM” value was 17.4%.
Under `Cc1ccc(CNC(=O)C2CCC(CNS(=O)(=O)c3cccc4cccnc34)CC2)cc1` (stereo not shown) stands 3.3%; under `O=C(COc1ccccc1Cl)NCCNC(=O)c1cccnc1`, 23.9%; under `CCC(c1nnnn1CCc1ccccc1)N(Cc1ccco1)Cc1cc2cccc(C)c2[nH]c1=O` (stereo not shown), 13.3%.
Under `CCn1cc(/C=N\NC(=O)c2ccccc2Cl)cn1` stands 11.4%; under `Cc1onc(-c2c(Cl)cccc2Cl)c1C(=O)c1ccccc1`, 19.1%; under `COC(=O)CCC(=O)OC1(C)C(=O)C=C2C=C(C3CC3)N(C3CCCC3)C=C2C1=O` (stereo not shown), 10.1%.
Under `CCOC(=O)Cn1c(=NC(=O)CSC(C)=O)sc2cc(OC)ccc21` stands 15.1%.
Regarding `Cc1cc(C)nc(S/C=C/C(=O)c2ccccc2)n1`, the “hERG current change (%, negative = inhibition) at 1uM” value worked out at 13.7%.
Under `OCCN=Cc1c(O)[nH]c2ccccc12` stands 13.8%; under `CC(=O)Nc1cccc(S(=O)(=O)N2CCCCCC2)c1`, 5.93%.
Under `C/C(=C\c1cccc(Br)c1)C(=O)c1c(C)cc(C)[nH]c1=O` stands 13.5%; under `OCCCCc1nccc2c1[nH]c1ccccc12`, 2.06%.
On to `COc1ccc(C(O)(CCN2CCOCC2)c2ccccc2)cc1` (stereo not shown), for which the “hERG current change (%, negative = inhibition) at 1uM” value was found to be 10.4%.
Under `COc1ccc(C)cc1NC(=O)C(OC(=O)c1cccc(S(=O)(=O)N(C)c2ccccc2)c1)c1ccccc1` (stereo not shown) stands 12%; under `COc1ccc(N2CCN(S(=O)(=O)CC34CCC(CC3=O)C4(C)C)CC2)cc1` (stereo not shown), 16.8%.
Under `COc1ccc(NC(=O)COC(=O)c2ccc(C)c(S(=O)(=O)N3CCCCC3)c2)cc1` stands -2.31%; under `S=C1NC2(CCCC2)Nc2ccccc21`, 7.5%; under `Oc1c(Br)cc(Br)cc1/C=N/n1c(-c2ccccc2)n[nH]c1=S`, 13.7%.
Under `O=C1C=C(N2CCOCC2)C2(CCCCC2)O1` stands 13.2%.
In the case of `O=C(CSc1nc2ccccc2c(=O)n1-c1ccc(OC(F)F)cc1)NC1CC1`, the “hERG current change (%, negative = inhibition) at 1uM” value is reported as -1.7%.
Under `Cc1ccc(S(=O)(=O)N2CCC(C(=O)NNC(=O)c3ccc(F)cc3)CC2)cc1` stands 13.8%.
